The RNAGym collection of RNA variant scans (doi:10.7554/elife.90254)
The source gives no read counts; variants with many changes may rest on few reads.

B1: LINE1-mini (parent)
chain: GGCAGAGCUCAACACAGCGUGGCAAAGUGGCUGUGGCUAGACUGCC

Variants of: B1
Assay: self-cleavage, relative activity (ratio to wild type); higher = more cleavage; in vitro, sequencing; the parent is a self-cleaving ribozyme
Work on A14C C15A C42A yielded a self-cleavage of 0.06.
For G1U U9G A24U, the self-cleavage was 0.01.
C3G C8U U9G U28C G33U showed a self-cleavage of 0.07.
In the case of A14C C31G C46U, the self-cleavage is reported as 0.01.
With C8A A12U G44U the self-cleavage was 0.27.
In the case of U28A G36A A39U C42A C46U, the self-cleavage is reported as 0.06.
With G5C A16U A39G G40A the self-cleavage was 0.04.
In the case of A4G A6G G7A U34A G36U C37U, the self-cleavage is reported as 0.04.
With G1U C15U G35A the self-cleavage was 0.02.
Work on A6G G33C G36C A39U C45G yielded a self-cleavage of 0.01.
In the case of G19U G22U G30A G36C G40U, the self-cleavage is reported as 0.08.
Variant A11C G22C C42U has a self-cleavage of 0.
For G22A A25U C46U, the self-cleavage was 1.64.
Variant C13A G19U C23G A24C A25C C37G has a self-cleavage of 0.02.
Variant U32C U38G G40C has a self-cleavage of 0.23.
In the case of C13U G29U A39G G40A, the self-cleavage is reported as 0.07.
In the case of C3U A16U A25C A26U, the self-cleavage is reported as 0.04.
Work on C8G G27U G35A A41C C46U yielded a self-cleavage of 0.01.
In the case of G1C A14G U43C, the self-cleavage is reported as 0.03.
Work on G7A G21A C46G yielded a self-cleavage of 0.11.
G2C G17U U20C C31A G35U C46U showed a self-cleavage of 0.09.
With C18A U34C G44U the self-cleavage was 0.03.
In the case of A12U G29U G33A U34G U43C, the self-cleavage is reported as 0.01.
G21A G36A C42G showed a self-cleavage of 0.07.
Work on G1A G22U U32C yielded a self-cleavage of 0.66.
G2U A12U C23G A24C showed a self-cleavage of 0.1.
Work on C15A A24U U28A G36C yielded a self-cleavage of 0.
Work on G5A G30C G44U yielded a self-cleavage of 0.08.
In the case of G5A A24C G30A U32G G44A, the self-cleavage is reported as 0.02.
G1U G2C C8G C46G showed a self-cleavage of 0.01.
A4C G22U C42G showed a self-cleavage of 0.05.
For G2A A24C C31U U34A C37G G44U, the self-cleavage was 0.02.
With A11C A14C G21A G22A C46G the self-cleavage was 0.02.
With G7A C8U G19C A26U the self-cleavage was 0.02.
For A16G C31A U43A, the self-cleavage was 0.
For A11U G17A A41G, the self-cleavage was 0.01.
Work on A6C A11G A16C G27U yielded a self-cleavage of 0.03.
U32C G35A C37U gave a self-cleavage of 0.03.
With U9G G19A G29C U38C C42G the self-cleavage was 0.04.
G19A G22A U34G G40U showed a self-cleavage of 0.02.
C13U G17U G27C G44C gave a self-cleavage of 0.23.
C15U U20G C23A U28A C42A gave a self-cleavage of 0.02.
With G35C A39G C42A G44U the self-cleavage was 0.03.
Work on G5C C37A G40A A41U yielded a self-cleavage of 0.03.
Variant A14C C15A A26G U38A has a self-cleavage of 0.07.
With G2C C13G A25G C37U C46U the self-cleavage was 0.02.
G19U G22A U32C showed a self-cleavage of 0.63.
In the case of A26C C31G G33C, the self-cleavage is reported as 0.08.
In the case of G1C G36U C37G, the self-cleavage is reported as 0.03.
For A14G U20A G21U G27A U34A C42G, the self-cleavage was 0.06.
Variant C10G G29U G30A has a self-cleavage of 0.48.
Work on G1U G17C A41C C42A yielded a self-cleavage of 0.02.
C3A G27U C45A showed a self-cleavage of 0.36.
C8A G33U C46G showed a self-cleavage of 0.13.
U20A U32G C46U showed a self-cleavage of 0.04.
In the case of G7U C23A G29U U32C, the self-cleavage is reported as 0.03.
U9G C10U A11C showed a self-cleavage of 0.06.
Work on G5U A26C A41U C45G yielded a self-cleavage of 0.02.
In the case of G17U U28A G35A A41G, the self-cleavage is reported as 0.05.
U20C G21U C45U C46G gave a self-cleavage of 0.55.
With G5C A25U G27C C45A the self-cleavage was 0.06.
For A4C U9C A16U C31A, the self-cleavage was 0.
Variant C18A C37A C42A U43A has a self-cleavage of 0.02.
Work on C8U U20C C37G C42U yielded a self-cleavage of 0.01.
G1A G17U U28A G36A C45G gave a self-cleavage of 0.01.
U20G G21A A39G C46A gave a self-cleavage of 0.02.
Variant A4G A12C A24C C42U has a self-cleavage of 0.03.
C10G C13G A14U G40U gave a self-cleavage of 0.
With G1A G2A U34A the self-cleavage was 0.26.
Work on C8A U34G G36C yielded a self-cleavage of 0.04.
Work on A16G G21U U34A yielded a self-cleavage of 0.
G2A C15A G17A G27A showed a self-cleavage of 0.48.
With C10A G30U G33U G35A C37A U43C the self-cleavage was 0.01.
G1C C10A G19A showed a self-cleavage of 0.01.
G5A U9A G22A U43A gave a self-cleavage of 0.03.
Work on C3U C18A G22C U28G yielded a self-cleavage of 0.26.
For A11G C13G C23G U32C, the self-cleavage was 0.
With C3G C8A U9C G21C G33U the self-cleavage was 0.05.
A4U G22A C23U C37A gave a self-cleavage of 0.
C3U G29C C31G G44C gave a self-cleavage of 0.04.
In the case of G1C C31U C37U, the self-cleavage is reported as 0.05.
Variant C18G G19A U28C G29U C31U C42U has a self-cleavage of 0.12.
Work on G2C A16U C23A U28C U34C A39C G44U yielded a self-cleavage of 0.01.
A12G U28G G35C gave a self-cleavage of 0.02.
C3U G19C U20G G21A U32A U34A A41G showed a self-cleavage of 0.01.
With G7U C8U A26G A39C the self-cleavage was 0.16.
G1C G2A C23U gave a self-cleavage of 0.07.
For G5C G33A A39G C45G, the self-cleavage was 0.03.
For U20C C23A U34C A41C U43G, the self-cleavage was 0.
With A12C G27C G44U the self-cleavage was 0.02.
G1U C15U G21A C46G showed a self-cleavage of 0.8.
A14G G21U A26G U43G showed a self-cleavage of 0.
In the case of C23G U28C U34C, the self-cleavage is reported as 0.08.
In the case of C8U A26C C37A A39G U43A, the self-cleavage is reported as 0.08.
Work on U9G C13A C31U yielded a self-cleavage of 0.1.
A14U A16C G27C G35U C46G gave a self-cleavage of 0.07.
C13G A14C G17U G19A G21C gave a self-cleavage of 0.03.
Variant A4U A12U C15A G27A G33A U34A G35A C45U has a self-cleavage of 0.03.
For G5U A12G C18U, the self-cleavage was 0.01.
Work on A6G U9A A14U A25U G27C G35A C45G yielded a self-cleavage of 0.2.
For A4U G36A C42A, the self-cleavage was 0.05.
Variant G2U G7C G35U has a self-cleavage of 0.07.
With A4C G33A G36A the self-cleavage was 0.16.
Variant G2A C13A C46A has a self-cleavage of 0.14.
Variant G7U C8U C10A has a self-cleavage of 0.04.
G7C C10A G22A A24C gave a self-cleavage of 0.01.
Variant G1A A16C A41G has a self-cleavage of 0.04.
G5U A11U C18A gave a self-cleavage of 0.03.
In the case of G2C A4C G35A, the self-cleavage is reported as 0.19.
With G2C C13U A16U C45U the self-cleavage was 0.02.
In the case of C23G C31G U32A C37U A39G C42A, the self-cleavage is reported as 0.02.
In the case of U20C C31U G35A, the self-cleavage is reported as 0.03.
A11U G21U A24C G27U gave a self-cleavage of 0.07.
C3A A4C G17C G30C G35U U38A U43A G44U showed a self-cleavage of 0.07.
With C8A G22A U32C the self-cleavage was 0.01.
Work on C18G G19A U43C yielded a self-cleavage of 0.07.
With C3U A6U G19U the self-cleavage was 0.19.
For A25C G27C C31A U32C G35U, the self-cleavage was 0.03.
G2A U9G C18U G21U A24C C37U U38G gave a self-cleavage of 0.05.
With C8U U20C G29C the self-cleavage was 0.09.
Variant A12U C23U G36U has a self-cleavage of 0.05.
Work on C13G C23A A24U yielded a self-cleavage of 0.
In the case of C18G G22A G36U, the self-cleavage is reported as 0.06.
With G30C U32C A41G the self-cleavage was 0.07.
For A6U G22U A26U, the self-cleavage was 0.74.
Variant A11U G17A C23U C45U has a self-cleavage of 0.05.
Variant A24C G35C C42G G44A has a self-cleavage of 0.
U20C U28G C42U showed a self-cleavage of 0.05.
With C13G G22U A25C U34G the self-cleavage was 0.
With G1A G21A A25G G33C A41U the self-cleavage was 0.04.
With C18U C23A U34G U43C the self-cleavage was 0.02.
Variant C3G C10U G19A G36A has a self-cleavage of 0.1.
In the case of G7A A11C C18G A41U, the self-cleavage is reported as 0.02.
With G5U A16U U20G G44U the self-cleavage was 0.02.
With C3A G21A A24U G33C C42A the self-cleavage was 0.19.
Variant C10G G19A A24U G27C has a self-cleavage of 0.08.
Variant G17U C23U A24U has a self-cleavage of 0.14.
With C3A A11C G29A U43A the self-cleavage was 0.08.
Work on G1U U9C G33C G40C C42U yielded a self-cleavage of 0.06.
Variant C18G G22C C42A has a self-cleavage of 0.04.
C10A C13G G22U gave a self-cleavage of 0.03.
U9G C13A A16C showed a self-cleavage of 0.05.
Variant G7C A26G C37U has a self-cleavage of 0.12.
G2C A14G C15A showed a self-cleavage of 0.13.
For C18G G21A G22U U38C C46G, the self-cleavage was 0.05.
C10A G29U A39G gave a self-cleavage of 0.03.
In the case of G19A G40U C45U, the self-cleavage is reported as 0.14.
For C8U A11C G33C G36C C45U, the self-cleavage was 0.
Work on A11G A14U C15A A25U C31G yielded a self-cleavage of 0.01.
For C3A G7C C10G A11G C15A C18A G21C, the self-cleavage was 0.03.
A16U G22C U28C G29A C31A showed a self-cleavage of 0.01.
Variant U9G G22U G44A has a self-cleavage of 0.04.
With A6C C15G C23U G29U G35A the self-cleavage was 0.07.
For A16U G35C G36U, the self-cleavage was 0.07.
Work on G2A G17U C23A G27A G36U yielded a self-cleavage of 0.07.
With C13U A25G C37A the self-cleavage was 0.08.
With G2C C8G U9C A14U A25U G27U G36C the self-cleavage was 0.01.
For G2A U20A G27U, the self-cleavage was 0.35.
C10U C18G C23A U28A showed a self-cleavage of 0.13.
G2A G19A C31G U34A showed a self-cleavage of 0.1.
For G2A G21C A39C, the self-cleavage was 0.04.
U20C A24C A26G gave a self-cleavage of 0.24.
C3U C18A A26G gave a self-cleavage of 0.07.
Work on A12C G44U C46U yielded a self-cleavage of 0.02.
In the case of C15U A25G A39G, the self-cleavage is reported as 0.15.
With G2C G17U C37A the self-cleavage was 0.32.
Variant G7A C8A G30A has a self-cleavage of 2.62.
